Laboratory results published in PubChem BioAssay AID504332 (National Center for Advancing Translational Sciences (NCATS), 2011).
Where “and” joins values, the source holds several entries; their conditions need not be identical. Equal values may be shown once. The whole screen tested about 350,000 compounds, of which about 31,000 (8.9%) were called active. The shares of active, inactive and inconclusive entries below differ from those in the screen. The call rests on the fitted dose curve; in most records, active means well fitted inhibition curve with a large enough effect; inconclusive means small, poorly fitted or top-dose-only effect; inactive means no such curve, though single readings can be large or run the other way. Where the call is inconclusive, the potency comes from a doubtful curve fit.
Further: nearly all actives have a fitted effect of over 75% in size.
On the % scale 0 is the no-effect control and ±100 the full control effect; potency means the concentration at half of the fitted maximal effect; tags describe the fitted curve by direction and shape.

Each compound was assayed against Histone-lysine N-methyltransferase EHMT2 (Homo sapiens) (UniProt Q96KQ7) (assay: qHTS Assay for Inhibitors of Histone Lysine Methyltransferase G9a). Conditions: G9a H3K9 monomethylation, AlphaScreen, 2 h; activity, negative = inhibition: at 59 µM (top of the series) unless noted.
Sequence of UniProt Q96KQ7 (Q96KQ7 whole entry, looked up): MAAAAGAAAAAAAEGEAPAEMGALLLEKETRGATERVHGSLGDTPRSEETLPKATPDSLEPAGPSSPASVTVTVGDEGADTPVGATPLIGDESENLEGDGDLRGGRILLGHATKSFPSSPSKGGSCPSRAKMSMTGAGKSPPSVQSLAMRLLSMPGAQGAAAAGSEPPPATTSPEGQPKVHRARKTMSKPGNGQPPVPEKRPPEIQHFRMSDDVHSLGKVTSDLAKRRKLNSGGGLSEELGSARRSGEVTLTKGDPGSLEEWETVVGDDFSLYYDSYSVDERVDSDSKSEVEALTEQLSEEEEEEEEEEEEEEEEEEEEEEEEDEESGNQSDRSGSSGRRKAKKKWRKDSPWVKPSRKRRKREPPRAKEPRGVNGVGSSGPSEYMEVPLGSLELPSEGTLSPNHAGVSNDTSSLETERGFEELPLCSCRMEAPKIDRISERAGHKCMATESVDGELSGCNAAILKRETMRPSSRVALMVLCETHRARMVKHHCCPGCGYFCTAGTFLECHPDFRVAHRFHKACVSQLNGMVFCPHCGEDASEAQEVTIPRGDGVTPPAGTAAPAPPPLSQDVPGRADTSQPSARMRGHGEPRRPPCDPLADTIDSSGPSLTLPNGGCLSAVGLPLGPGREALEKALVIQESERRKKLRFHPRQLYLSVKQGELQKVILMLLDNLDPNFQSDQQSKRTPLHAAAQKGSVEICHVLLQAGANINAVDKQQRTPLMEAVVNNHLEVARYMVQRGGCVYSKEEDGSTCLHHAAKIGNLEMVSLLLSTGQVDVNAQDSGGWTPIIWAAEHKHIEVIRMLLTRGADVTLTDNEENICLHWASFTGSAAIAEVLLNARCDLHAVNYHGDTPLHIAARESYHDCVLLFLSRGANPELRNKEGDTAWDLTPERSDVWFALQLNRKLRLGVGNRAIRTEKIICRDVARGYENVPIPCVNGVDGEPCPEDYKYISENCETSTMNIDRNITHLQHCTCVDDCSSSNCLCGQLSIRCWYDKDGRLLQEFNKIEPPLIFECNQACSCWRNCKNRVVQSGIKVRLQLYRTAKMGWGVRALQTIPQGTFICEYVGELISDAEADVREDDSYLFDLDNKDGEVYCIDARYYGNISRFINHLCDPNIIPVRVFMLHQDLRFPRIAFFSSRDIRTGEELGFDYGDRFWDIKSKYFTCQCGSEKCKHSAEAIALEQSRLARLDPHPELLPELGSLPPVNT
Method in brief: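 Methyltransferase reactions run at room temperature for 2 h (20 nM enzyme, 500 nM biotin-H3K9 peptide, 20 uM SAM) after a 15 min compound preincubation; product detected by AlphaScreen beads and anti-H3K9me1 antibody.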
CCOc1ccc(/C=C(/NC(=O)c2ccccc2Cl)C(=O)O)cc1 was tested, and the Potency was inconclusive: 70.8 µM [inhibitor, partial curve, poor fit].
In the case of O=C(COC(=O)c1cc(=O)[nH]c2ccccc12)NC(=O)NC1CCCCC1, the Potency is reported as inconclusive: 89.1 µM [inhibitor, partial curve, poor fit].
For Cc1oc(-c2ccccc2F)nc1CS(=O)(=O)CC(=O)N1CCOCC1, the Potency was “inactive”.
CN(C)c1ccc(-c2ccc3c(=O)c4ccccc4n(C)c3c2)cn1 was tested, and the Potency was inconclusive: 17.8 µM [inhibitor, partial curve, poor fit].
For CSc1nc(-c2ccco2)cc(-c2ccccc2)c1C#N, the Potency was active: 50.1 µM.
In the case of CCn1nnc(NC(=S)NC(=O)c2ccc(-c3cccc(Cl)c3)o2)n1, the Potency is reported as inconclusive: 28.2 µM [inhibitor, single point].
For O=C(CSc1nnnn1-c1ccccc1)Nc1ccccc1, the Potency was “inactive”.
With C=CCn1c(SCC(=O)N2CCOCC2)nc2scc(-c3ccco3)c2c1=O the Potency was inconclusive: 8.91 µM [inhibitor, partial curve, poor fit].
For Oc1ccc(/C=N/N(c2ccccc2)c2ccccc2)c(O)c1O, the Potency was active: 14.1 µM.
In the case of CC(C)C(=O)NC(C)C(c1cccs1)N1CCN(c2ccccc2)CC1 (stereo not drawn), the Potency is reported as inconclusive: 31.6 µM [inhibitor, single point].
With CCCN1C(=O)C(O)(CC(=O)c2ccc(CC)cc2)c2cc(Br)ccc21 (stereo not drawn) the Potency was “inactive”.
For Cc1ccc2c(C)nc(Nc3nc(CSc4nnc(C)s4)cc(=O)[nH]3)nc2c1, the Potency was “inactive”.
With O=[N+]([O-])c1ccc(N=NNc2ccccc2)cc1 the Potency was active: 22.4 µM.
O=C(N/N=C\c1cc([N+](=O)[O-])ccc1N1CCOCC1)c1ccccn1 was tested, and the Potency was inconclusive: 0.447 µM [inhibitor, full curve, poor fit].
With CCOC(=O)C1=C(C)NC(SCc2cc(=O)[nH][nH]2)=C(C#N)C1c1cccs1 (stereo not drawn) the Potency was inconclusive: 0.794 µM [inhibitor, partial curve, poor fit].
In the case of COC(=O)c1oc(-c2ccc(Cl)cc2)nc1C, the Potency is reported as “inactive”.
CCN(CC)CCN1C(=O)C(=O)/C(=C(/O)c2c(C)[nH]c(C(=O)OC)c2C)C1c1ccccc1OC (stereo not drawn) was tested, and the activity, negative = inhibition was inconclusive: -86.3% [inhibitor].
With CN1CCN(CC(O)COCCOc2ccc(Br)cc2)CC1 (stereo not drawn) the Potency was inconclusive: 11.2 µM [inhibitor, partial curve].
CN(CCOc1ccccc1)CC(=O)Nc1ccc(Cl)c(S(=O)(=O)N(C)C)c1 was tested, and the Potency was active: 8.91 µM.
In the case of O=C(Oc1ccc([N+](=O)[O-])cc1)c1cncc(Br)c1, the Potency is reported as inconclusive: 14.1 µM [inhibitor, partial curve].
With Cc1ccc(C(=O)c2coc3cc([N+](=O)[O-])c(O)c([N+](=O)[O-])c23)cc1 the Potency was active: 8.91 µM.
For Cc1cc(C)c2c(n1)sc1c(=O)[nH]c(SCc3ccccc3)nc12, the Potency was inconclusive: 15.8 µM [inhibitor, partial curve, poor fit].
For Ic1ccc(N2CCN(Cc3c[nH]c4ncccc34)CC2)cc1, the Potency was active: 22.4 µM and active: 8.91 µM and active: 23.8 µM.
With Cc1ccc(C(=O)c2c(C)oc3c2C(=O)C(=O)c2ccccc2-3)cc1 the activity, negative = inhibition was inconclusive: -113% [inhibitor].
Cc1cccc2cc(/C=N/NC(=O)CN3CCCCC3)c(Cl)nc12 was tested, and the Potency was “inactive”.
In the case of Cc1cccc(-n2cc(-c3ccccc3)c3c(NC(C)C)ncnc32)c1, the Potency is reported as “inactive”.
With CCOc1ccccc1CNC(=O)c1ccc(NC(=O)C2=C(C)OCCS2)cc1 the Potency was active: 31.6 µM.
C=CCOc1c(Br)cc(/C=C2/C(=O)ON=C2C)cc1OC was tested, and the Potency was active: 31.6 µM.
CC(C)Oc1ccc(C(=O)Nc2nc3ccccc3[nH]2)cc1 was tested, and the Potency was “inactive”.
In the case of Cc1cc(C2=NNC(=NC3CC3)SC2)c(C)n1Cc1ccco1, the Potency is reported as active: 25.1 µM.
In the case of CCCCNC(=O)c1nn2cc(Br)cnc2c1Br, the Potency is reported as inconclusive: 89.1 µM [inhibitor, partial curve, poor fit].
With CN(C)c1ccc(/C=C(\NC(=O)c2ccccc2)C(=O)NCCCn2ccnc2)cc1 the Potency was active: 50.1 µM.
With CN1CCN(CC(=O)Nc2ccccc2C(F)(F)F)CC1 the Potency was active: 4.47 µM.
With CCOC(=O)c1c(C)oc2ccc(OCC(=O)N(CC)CC)cc12 the Potency was “inactive”.
With Cc1ccc(-n2c(SCC(=O)NCC3CCCO3)nnc2-c2ccoc2C)cc1 (stereo not drawn) the Potency was inconclusive: 79.4 µM [inhibitor, single point].
For Cc1cc2c(cc1C)NC(CC(=O)NCc1ccccc1)C(=O)N2 (stereo not drawn), the Potency was active: 3.16 µM.
For CC1=NN(c2ccc(Cl)cc2)C(=O)C1C(c1cccc(O)c1)c1c(C)[nH]n(-c2ccc(Cl)cc2)c1=O (stereo not drawn), the Potency was inconclusive: 28.2 µM [inhibitor, partial curve, poor fit].
In the case of Cc1ccc(C2=N/C(=C\c3ccc(F)cc3)C(=O)N2)cc1, the Potency is reported as inconclusive: 7.08 µM [inhibitor, single point].
With CCOc1ccccc1-n1c(CNc2ccc(F)cc2)nnc1SCC(=O)NCc1ccco1 the Potency was inconclusive: 39.8 µM [inhibitor, single point].
For CN1C(CCl)Nc2cc(Cl)c(S(N)(=O)=O)cc2S1(=O)=O (stereo not drawn), the activity, negative = inhibition was inactive: 9.66% [at 12.7 µM].
With O=C(NC1CCCCC1)c1n[nH]c2c1CC(c1ccccc1)CC2 (stereo not drawn) the activity, negative = inhibition was inactive: -11.3% [at 2.33 µM].
For COc1ccc(NC(=O)Nc2ccc(OC)cc2)cc1, the activity, negative = inhibition was inactive: 20.3% [at 12.7 µM].
In the case of CCOc1nc(NCc2ccco2)nc(Nc2ccccc2F)n1, the Potency is reported as “inactive”.
With Cc1ccc(C(=O)N/C(=C/c2cccnc2)C(=O)O)cc1 the Potency was inconclusive: 89.1 µM [inhibitor, single point].
With COc1ccc(C(C)=O)cc1CSc1nnc(-c2ccncc2)o1 the Potency was inconclusive: 1.58 µM [inhibitor, partial curve, poor fit].
With CNc1ccc(Cl)nn1 the activity, negative = inhibition was inactive: 19.8% [at 12.7 µM].
Nc1cc(S(=O)(=O)Nc2ccc(Cl)cc2)ccc1N1CCOCC1 was tested, and the Potency was active: 28.2 µM.
COCCSc1nnc(NS(=O)(=O)c2ccc(F)cc2)s1 was tested, and the Potency was active: 31.6 µM.
For Nc1ncnc2nc(Sc3ccc(Cl)cc3)[nH]c12, the Potency was inconclusive: 39.8 µM [inhibitor, single point].
For CCCc1nnc(N2C(=O)c3oc4ccc(F)cc4c(=O)c3C2c2ccc(C(=O)OC)cc2)s1 (stereo not drawn), the Potency was inconclusive: 25.1 µM [inhibitor, partial curve, poor fit].
COc1ccccc1OCC(=O)Nc1nnc2n1CCS2 was tested, and the Potency was inconclusive: 1.78 µM [inhibitor, full curve, poor fit].
In the case of CCOC(=O)C1=C(C)N=c2s/c(=C/c3ccc(OCC(=O)O)cc3)c(=O)n2C1c1ccc(F)cc1 (stereo not drawn), the Potency is reported as inconclusive: 89.1 µM [inhibitor, single point].
In the case of O=C1OC(N2C(=O)CC[C@H]2C(=O)Nc2ccc3c(c2)OCO3)c2ccccc21 (stereo partly drawn), the Potency is reported as inconclusive: 6.31 µM [inhibitor, single point].
O=C(NCc1ccccc1)C(c1ccncc1)N(C(=O)c1csnn1)c1cccc(F)c1 (stereo not drawn) was tested, and the Potency was inconclusive: 89.1 µM [inhibitor, single point].
CCOc1cc(N2CCOCC2)c(OCC)cc1NC(=O)c1cccc(N(C)C)c1 was tested, and the Potency was active: 44.7 µM.
In the case of CCC(=O)Oc1oc(-c2ccccc2)nc1C=Nc1ccc(C)cc1, the Potency is reported as inconclusive: 89.1 µM [inhibitor, partial curve, poor fit].
Cc1cccc(C(=O)N2CCC(Cc3ccccc3)CC2)c1[N+](=O)[O-] was tested, and the Potency was inconclusive: 1.58 µM [inhibitor, partial curve, poor fit].
For COc1cc2[nH]c3c(=O)n(CCN4CCCCC4)cnc3c2cc1OC, the Potency was inconclusive: 39.8 µM [inhibitor, single point].
CC(=O)C(=Nc1ccc(Cl)cc1Cl)NNc1cccc(Cl)c1 was tested, and the Potency was inconclusive: 3.55 µM [inhibitor, single point].
N#Cc1cccc(-c2cncnc2NCc2cccnc2)c1 was tested, and the activity, negative = inhibition was inactive: 13.3% [at 0.501 µM].
In the case of CC(C)CCNC(=O)c1ccc(C2SCC(=O)N2Cc2ccco2)cc1 (stereo not drawn), the Potency is reported as inconclusive: 39.8 µM [inhibitor, single point].
In the case of Cc1cc(C)c2c(N)c(C(=O)NCC3CCCCC3)sc2n1, the activity, negative = inhibition is reported as inconclusive: -64% [inhibitor].
CN1C/C(=C/c2cccnc2)C(=O)/C(=C/c2cccnc2)C1 was tested, and the Potency was inconclusive: 35.5 µM [inhibitor, single point].
For CCC(=O)N1CCN(c2cc(N3CCN(C)CC3)c(F)cc2[N+](=O)[O-])CC1, the Potency was “inactive”.
CCc1ccc(-n2c(SCc3cc(=O)n4cc(Br)ccc4n3)nc3[nH]ncc3c2=O)cc1 was tested, and the Potency was inconclusive: 20 µM [inhibitor, full curve].
With COc1ccccc1OCc1ccc(C(=O)NCC(C)C)o1 the Potency was “inactive”.
Cc1c(Cl)cccc1NC(=O)NCc1ccc(C)n1C was tested, and the Potency was inconclusive: 63.1 µM [inhibitor, single point].
For CCOC(=O)c1c(NC(=O)CS(=O)(=O)c2ccc(C)cc2)sc2c1CCC(C)C2 (stereo not drawn), the Potency was “inactive”.
With COc1ccc(S(=O)(=O)N2CCCCC2)cc1NC(=O)CNc1ccccc1C(C)=O the activity, negative = inhibition was inactive: -14.4% [at 12.7 µM].
In the case of CCC(C)NC(=O)Cn1c(=O)n(CC2CCC(C(=O)NC)CC2)c(=O)c2sccc21 (stereo not drawn), the Potency is reported as “inactive”.
O=C(NCc1ccccc1)C1CCC(=O)N(CCN2CCOCC2)C1 (stereo not drawn) was tested, and the Potency was “inactive”.
In the case of COc1ccc(CCn2c(Br)nc3c2c(=O)[nH]c(=O)n3C)cc1, the Potency is reported as “inactive”.
C=CCNC(=O)c1ccc(-c2nc(-c3ccc(Cl)cc3Cl)cs2)cc1 was tested, and the activity, negative = inhibition was inactive: -41.1% [at 12.7 µM].
